Source: the supplement of paper PMC3334620
In all, about 33,000 sequences were measured (“E-score (-0.5 to 0.5)”: median about -0.035, highest 2% from about 0.35 on). This is one part of the list.

These sequences were tested against T1, Pdr3 (UniProt P33200) (assay: PBM E-score (8-mer binding enrichment) (E-score (-0.5 to 0.5)); higher = stronger / more preferred TF binding; most listed sequences are background and not binding sites). Conditions: protein concentration: 200 nM; construct: GST-full length.
T1 sequence: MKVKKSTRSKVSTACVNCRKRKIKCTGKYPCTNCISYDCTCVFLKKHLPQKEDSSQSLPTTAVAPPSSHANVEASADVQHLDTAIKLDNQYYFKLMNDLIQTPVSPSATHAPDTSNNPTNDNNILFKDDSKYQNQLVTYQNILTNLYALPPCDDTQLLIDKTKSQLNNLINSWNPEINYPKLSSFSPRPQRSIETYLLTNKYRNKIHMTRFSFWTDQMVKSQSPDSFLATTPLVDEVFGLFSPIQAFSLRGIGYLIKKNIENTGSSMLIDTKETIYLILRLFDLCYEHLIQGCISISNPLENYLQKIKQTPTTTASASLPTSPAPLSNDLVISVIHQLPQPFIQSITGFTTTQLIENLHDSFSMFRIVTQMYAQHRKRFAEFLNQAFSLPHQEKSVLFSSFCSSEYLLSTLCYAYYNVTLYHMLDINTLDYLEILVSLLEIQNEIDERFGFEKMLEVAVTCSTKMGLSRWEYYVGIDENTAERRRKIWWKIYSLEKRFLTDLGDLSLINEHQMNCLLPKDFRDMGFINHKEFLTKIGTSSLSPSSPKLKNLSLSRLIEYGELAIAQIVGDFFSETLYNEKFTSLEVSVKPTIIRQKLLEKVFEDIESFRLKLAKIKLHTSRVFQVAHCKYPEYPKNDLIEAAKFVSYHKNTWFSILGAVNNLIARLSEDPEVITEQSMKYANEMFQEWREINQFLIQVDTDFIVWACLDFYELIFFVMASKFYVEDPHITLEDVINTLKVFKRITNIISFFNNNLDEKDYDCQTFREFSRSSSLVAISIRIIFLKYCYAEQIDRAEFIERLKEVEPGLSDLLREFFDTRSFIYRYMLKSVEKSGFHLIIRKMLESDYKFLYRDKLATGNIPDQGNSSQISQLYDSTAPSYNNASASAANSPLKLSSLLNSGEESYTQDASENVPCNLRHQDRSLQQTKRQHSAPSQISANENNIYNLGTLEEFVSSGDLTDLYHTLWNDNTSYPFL
Method in brief: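 Detection of bound protein used fluorescent anti-GST, with scans normalised by masliner. The proteins were GST-tagged yeast transcription factors applied at about 100-200 nM to universal all-10-mer Agilent arrays made double-stranded by primer extension. Each ungapped eight-base word, pooled with its reverse complement, was scored with an E-score from the Universal PBM Analysis Suite.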

Sequence	PBM E-score
CCTTGGCA	-0.198
ATTCCCGC	0.348
CCCGCTGA	0.119
AGGAGCCG	0.0342
CCCTATTC	0.106
AGAGAACA	-0.0756
ACATAGCC	0.16
AACTATTC	0.126
ACTCCACC	-0.0705
GGTGGTCA	0.0287
TGTGGAAA	0.0299
ATCTTTTC	-0.0261
AGGCAGAG	-0.287
AGAACAAT	0.0944
CGTATAGC	0.079
ATTGGGAG	-0.086
ACCAAAGA	0.06
TAGCAATA	-0.115
CACTACTC	0.0868
CCAACACC	-0.0533
AAAGTGTG	-0.141
AAAACTCC	-0.0074
GTCGTAAA	-0.0422
CCAAATGA	-0.00462
AGCTGGGC	-0.236

Sequence	PBM E-score
GCAGTCAA	-0.235
CGAACGCC	0.0472
AGCGGAAT	0.392
GATCATTA	-0.0398
ACACGGTC	0.0432
AGTTACAG	-0.111
CACGATAG	-0.0914
AATATTTA	0.103
ATGCACTG	-0.059
AAATTCGA	-0.2
GGCATTGA	0.0887
AGATCGAC	-0.076
TCCACACA	-0.0475
CTAAAAAG	-0.272
CAGTGTCG	-0.177
GCCAAGGC	-0.11
ACCGTATA	-0.214
AGACGGAT	0.249
ATAGAAAA	-0.14
AAGCCGCT	0.088
CAGAGGCA	-0.133
CGAATTCG	0.166
GAACGCGA	0.121
AGAGCAGA	-0.178
ATATGTAC	-0.00303

Sequence	PBM E-score
CGCGCACC	0.0766
CCTGAATA	-0.0245
CACACAGC	-0.0259
AATATTGC	0.118
AATGACGA	-0.207
CCTTGTCA	-0.212
AGCGCTCA	-0.127
AAATGTGA	-0.173
AGATACTG	-0.0657
ACTCTCAC	-0.00506
CATAATAA	-0.109
AATTGCGT	0.139
CCGTGCAG	0.202
GACTACTC	0.115
ATCTTGCA	0.116
CCGGACAC	0.366
GAAGCACC	-0.108
CGTCCAGA	-0.0748
GCATATCC	-0.00296
ACGTGTAC	-0.317
CTCGCCGA	0.179
AGTATAAT	0.136
ATCGGATC	0.301
AGGCGTTA	-0.171
CAATCCAA	-0.0633

Sequence	PBM E-score
CAAAGATA	-0.0907
TACTACCA	-0.184
TCGCGTCA	0.0486
GTCCATTA	-0.0206
CCCGGAGC	0.39
ATGTCTGC	-0.0315
AACGACCC	0.142
GCACTATA	-0.0101
CCGCCATA	0.288
CATCTCCG	0.377
CCCACTCC	0.0193
AAGCCACA	-0.204
ATTCTTCC	0.159
GCACACCA	0.0828
AAACTGGG	-0.0614
CTATGCCC	0.0437
ATTACGCA	-0.103
CGAGGTCC	0.299
AAACCTCT	-0.151
ATTCCATG	0.212
GACCATCC	0.109
GATATACA	0.0781
AGAGTCCG	0.166
ACCTTGTC	-0.247
AGAGTTCC	0.203

Sequence	PBM E-score
ACTCCGTG	0.282
CGCGATAA	-0.00886
CAGATGGA	0.108
ACTACACA	0.0141
AACAGGTC	-0.108
ATGAAAAC	0.175
TGACAGAA	-0.194
CCGATAAA	0.177
CACAGACA	-0.154
CTCCTAAG	-0.205
GGGTGATA	0.0215
AGGGGCCG	-0.113
ATGCATTG	-0.0958
CGGGATTC	0.382
AACGCTAA	-0.287
CTTTGGTC	0.116
AGTTCTCC	0.0212
CTAAATCC	0.245
GCTTGTAA	-0.201
ATCCATGG	0.0773
CCTTGGTA	0.0284
AGGTAGGC	-0.0914
AGCACTAA	-0.0921
CACGTCGA	0.0487
CATTGAGG	-0.178

Sequence	PBM E-score
GGATCAAA	0.0676
AAAGACGA	-0.246
GGATCGCC	0.155
GACAGGTA	-0.183
AGGGAGAG	-0.217
CACAGCAC	-0.0318
ACAAGTAC	-0.045
GGCTACAC	-0.271
AATTTTCG	-0.0602
AGGACAAG	-0.135
CGTATATA	-0.146
CTCACAAG	-0.0841
GAGATCAA	0.0191
AAGCTGAT	0.165
CCTATAGA	-0.208
CCCCGAAG	0.144
ATGTTTCA	-0.175
GAAGGGAC	-0.12
AAGACCAT	-0.164
CCGGGACC	0.413
ATGACCAT	-0.0204
CACGAAGG	-0.102
CTGCATGA	-0.226
AACGACGT	-0.159
CCAACGCG	0.0835

Sequence	PBM E-score
AACGCCAT	-0.0238
GCAAACGA	-0.0555
ACGCGAGA	-0.144
CTATCTTC	-0.0566
GAGCAAAC	-0.038
GAAGCGGA	0.318
AGGACTAT	-0.188
CCCGGCGA	0.296
CCCCTAAC	-0.143
CATCACAG	-0.0891
CCCCCTAC	-0.275
CCAATGAA	-0.124
CGTGTATC	-0.0288
ACCACTGA	-0.236
ATATAGTC	0.111
ATGAAATC	-0.0808
GGAGTACC	-0.0755
ACACCCGA	0.203
GCTGAACC	0.0584
AAGATTCC	0.283
AGTATATG	0.0798
CATTGACA	-0.155
